This passage reports enrichment results from the supplement of paper PMC12230231.

± gives the standard deviation of the averaged measurements. Restriction of a single-cycle SIVsab GFP reporter by TRIM5α v1-loop variants in CRFK cells. Human variants: read share among cells still uninfected after two challenges over input, higher = gained restriction. Rhesus variants: share among infected cells over input, higher = lost restriction. Reporter dose not given per row. No active / inactive call per row; the paper calls a change when both replicates lie above its controls (mean + 2 SD of stop or wild-type variants, or the top frameshift score). Residues outside the varied loop are taken from Swiss-Prot. The paper reads the human single-substitution scores as noise; they and the rhesus combinations repeat poorly (rank correlation 0.3 to 0.4), indel scores repeat only for the top variants, rhesus substitutions well (0.9).

The subject of the series is SIVsab (simian immunodeficiency virus of sabaeus monkeys), single-cycle GFP reporter, in CRFK cells. Briefly: enrichment among uninfected cells over input (fold); higher = stronger restriction. Conditions: library: insertions and deletions. As to the method: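 Pools of CRFK cells expressing variants of the TRIM5α v1 loop were challenged with the single-cycle reporter, sorted by GFP and sequenced; mean of two replicates.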
With “MASGILVNVKEEVTCPICLELLTQPLSLDCGHSFCQACLTANHKKSMLDKGESSCPVCRISYQPENIRPNRHVANIVEKLREVKLSPEGQKVDHCARHGEKLLLFCQEDGKVICWLCERSQEHRGHHTFLTEEVAREYQVKLQAALEMLRQKQQEAEELEADIREEKASWKTQIQYDKTNVLADFEQLRDILDWEESNELQNLEKEEEDILKSLTNSETEMVQQTQSLRELISDLEHRLQGSVMELLQGVDGVIKRTENVTLKKPETFPKNQRRVFRAPDLKGMLEVFRELTDVRRYWVDVTVAPNNISCAVISEDKRQVSSPKPQIIYGARGYGARGTRYQTFVNFNYCTGILGSQSITSGKHYWEVDVSKKTAWILGVCAGFQPDAMCNIEKNENYQPKYGYWVIGLEEGVKCSAFQDSSFHTPSVPFIVPLSVIICPDRVGVFLDYEACTVSFFNITNHGFLIYKFSHCSFSQPVFPYLNPRKCGVPMTLCSPSS [human TRIM5α, 5-codon duplication at 329]”, the enrichment was 0.231 ± 0.21.

For “MASGILVNVKEEVTCPICLELLTQPLSLDCGHSFCQACLTANHKKSMLDKGESSCPVCRISYQPENIRPNRHVANIVEKLREVKLSPEGQKVDHCARHGEKLLLFCQEDGKVICWLCERSQEHRGHHTFLTEEVAREYQVKLQAALEMLRQKQQEAEELEADIREEKASWKTQIQYDKTNVLADFEQLRDILDWEESNELQNLEKEEEDILKSLTNSETEMVQQTQSLRELISDLEHRLQGSVMELLQGVDGVIKRTENVTLKKPETFPKNQRRVFRAPDLKGMLEVFRELTDVRRYWVDVTVAPNNISCAVISEDKRQVSSPKPQIIYGARGYQTFVNFNYCTGILGSQSITSGKHYWEVDVSKKTAWILGVCAGFQPDAMCNIEKNENYQPKYGYWVIGLEEGVKCSAFQDSSFHTPSVPFIVPLSVIICPDRVGVFLDYEACTVSFFNITNHGFLIYKFSHCSFSQPVFPYLNPRKCGVPMTLCSPSS [human TRIM5α, 2-codon deletion at 334]”, the enrichment is 0.765 ± 0.55.

The sequence “MASGILVNVKEEVTCPICLELLTQPLSLDCGHSFCQACLTANHKKSMLDKGESSCPVCRISYQPENIRPNRHVANIVEKLREVKLSPEGQKVDHCARHGEKLLLFCQEDGKVICWLCERSQEHRGHHTFLTEEVAREYQVKLQAALEMLRQKQQEAEELEADIREEKASWKTQIQYDKTNVLADFEQLRDILDWEESNELQNLEKEEEDILKSLTNSETEMVQQTQSLRELISDLEHRLQGSVMELLQGVDGVIKRTENVTLKKPETFPKNQRRVFRAPDLKGMLEVFRELTDVRRYWVDVTVAPNNISCAVISEDKRQVSSPKPQIIYGARIIYGARGTRYQTFVNFNYCTGILGSQSITSGKHYWEVDVSKKTAWILGVCAGFQPDAMCNIEKNENYQPKYGYWVIGLEEGVKCSAFQDSSFHTPSVPFIVPLSVIICPDRVGVFLDYEACTVSFFNITNHGFLIYKFSHCSFSQPVFPYLNPRKCGVPMTLCSPSS [human TRIM5α, 6-codon duplication at 327]” registered an enrichment of 0.503 ± 0.54.

On to “MASGILVNVKEEVTCPICLELLTQPLSLDCGHSFCQACLTANHKKSMLDKGESSCPVCRISYQPENIRPNRHVANIVEKLREVKLSPEGQKVDHCARHGEKLLLFCQEDGKVICWLCERSQEHRGHHTFLTEEVAREYQVKLQAALEMLRQKQQEAEELEADIREEKASWKTQIQYDKTNVLADFEQLRDILDWEESNELQNLEKEEEDILKSLTNSETEMVQQTQSLRELISDLEHRLQGSVMELLQGVDGVIKRTENVTLKKPETFPKNQRRVFRAPDLKGMLEVFRELTDVRRYWVDVTVAPNNISCAVISEDKRQVSSPKPQIIYGARIYGARGTRYQTFVNFNYCTGILGSQSITSGKHYWEVDVSKKTAWILGVCAGFQPDAMCNIEKNENYQPKYGYWVIGLEEGVKCSAFQDSSFHTPSVPFIVPLSVIICPDRVGVFLDYEACTVSFFNITNHGFLIYKFSHCSFSQPVFPYLNPRKCGVPMTLCSPSS [human TRIM5α, 5-codon duplication at 328]”, for which the enrichment was 0.565 ± 0.047.
